{"source": "PubChem BioAssay AID761", "about": "(NMMLSC, 2007)", "note": "The whole screen tested about 190,000 compounds, of which about 400 (0.21%) were called active. This list was built around the results that the source calls inconclusive (neither active nor inactive); the mix of calls is not that of the screen.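 How the source made its calls: active means percent activity GTP binding at least 20 points away from the 100% baseline, either down as inhibitor or up as activator; inconclusive means compound flagged as likely green fluorescent from well-wide comparison; inactive means the rest.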"}
{"target": "Cell division control protein 42 homolog (Homo sapiens) (UniProt P60953)", "sequence (P60953 whole entry, looked up)": "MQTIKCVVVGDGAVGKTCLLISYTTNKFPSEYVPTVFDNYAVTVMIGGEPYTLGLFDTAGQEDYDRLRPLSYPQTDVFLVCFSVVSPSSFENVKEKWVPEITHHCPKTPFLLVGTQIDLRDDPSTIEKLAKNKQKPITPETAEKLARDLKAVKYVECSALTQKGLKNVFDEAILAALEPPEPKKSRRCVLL", "experiment": "wildtype Cdc42 fluorescent GTP binding changes, either direction – biochemical, multiplex bead flow cytometry, Bodipy-GTP, primary screen (AID 761);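 further: median bead fluorescence of bound Bodipy-FL-GTP at 100 nM; 0% = excess unlabeled GTP control and 100% = no compound control; below 100% means less GTP binding so inhibitor and above means activator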", "settings": "GST-Cdc42 beads, at 10 µM, actives lie on both sides"}
{"smiles": "O=c1c2c(nc3cc(-c4ccc(Br)cc4)[nH]n13)CCCC2", "percent activity (GTP binding)": "inconclusive: 85%"}
{"smiles": "Cc1ccc2c(c1)cc(CN(Cc1cccnc1)C(=O)c1ccccc1)c1nnnn12", "percent activity (GTP binding)": "inconclusive: 96%"}
{"smiles": "CC1(C)CC(NC(=O)c2ccncc2)CC(C)(C)N1O", "percent activity (GTP binding)": "inactive: 99%"}
{"smiles": "CC(C)NC(=S)N=Nc1c(O)[nH]c2ccc([N+](=O)[O-])cc12", "percent activity (GTP binding)": "active: 68%"}
{"smiles": "c1ccc2[nH]c3cc4ncnc4cc3nc2c1", "percent activity (GTP binding)": "inactive: 83%"}
{"smiles": "CCNC(=O)C1CCCN1S(=O)(=O)c1ccc(OC)cc1", "note": "(configuration not stated)", "percent activity (GTP binding)": "inconclusive: 88%"}
{"smiles": "O=C(CNCC1CCCO1)Nc1ccc(N2CCCCCC2)cc1", "note": "(configuration not stated)", "percent activity (GTP binding)": "inconclusive: 107%"}
{"smiles": "O=C(CSc1ncccn1)NCc1cccs1", "percent activity (GTP binding)": "inactive: 94%"}
{"smiles": "O=C(Cn1cnc2scc(-c3ccc(Br)cc3)c2c1=O)N1CCOCC1", "percent activity (GTP binding)": "inactive: 96%"}
{"smiles": "Cc1ccc(NC(=O)c2ccccc2OCC(=O)Nc2cccc(Cl)c2C)nc1", "percent activity (GTP binding)": "inactive: 92%"}
{"smiles": "O=C(CN1CCN(c2ccccn2)CC1)Nc1ccc(OCc2ccccc2)cc1", "percent activity (GTP binding)": "inconclusive: 107%"}
{"smiles": "CCO[C@@H]1OC(C(=O)NCc2ccccc2)=C[C@H](c2coc3ccccc3c2=O)[C@H]1CCCO", "percent activity (GTP binding)": "inactive: 95%"}
{"smiles": "CCc1ccc(CNC(=O)c2cc3c(C)nc4ccccc4c3o2)cc1", "percent activity (GTP binding)": "inconclusive: 89%"}
{"smiles": "CCC(=O)c1ccc(OCC(O)CN(CCc2ccccc2)Cc2ccccc2)cc1", "note": "(configuration not stated)", "percent activity (GTP binding)": "inconclusive: 104%"}
{"smiles": "CC1(C)Cc2ccccc2C(C(Cc2ccccc2)C(N)=O)=N1", "note": "(configuration not stated)", "percent activity (GTP binding)": "inactive: 95%"}
{"smiles": "O=C(NC1CCCC1)c1cccc(Oc2ccccc2)c1", "percent activity (GTP binding)": "inactive: 99%"}
{"smiles": "Cc1ccc(C(=O)NC(=S)Nc2ccc3[nH]c(=O)[nH]c3c2)c(C)c1", "percent activity (GTP binding)": "inconclusive: 96%"}
{"smiles": "O=C(CCN1CCOCC1)Nc1ccccc1", "percent activity (GTP binding)": "inconclusive: 102%"}
{"smiles": "O=C(CCn1ccnc1)Nc1ccc2ccccc2c1", "percent activity (GTP binding)": "inactive: 95%"}
{"smiles": "O=C(NCCN1CCN(Cc2ccccc2)CC1)C1c2ccccc2C(=O)N2CCc3ccccc3C12", "note": "(configuration not stated)", "percent activity (GTP binding)": "inconclusive: 105%"}
{"smiles": "CC(C)CC(c1nnnn1C(C)C)N1CCN(c2cccc(Cl)c2)CC1", "note": "(configuration not stated)", "percent activity (GTP binding)": "inconclusive: 102%"}
{"smiles": "CCOc1ccccc1C(=O)Nc1cccc(-c2nnc(-c3ccccc3)o2)c1", "percent activity (GTP binding)": "inconclusive: 84%"}
{"smiles": "COc1ccc(NC(=O)CSc2ncccc2C(=O)OC(C)C)cc1OC", "percent activity (GTP binding)": "inconclusive: 105%"}
{"smiles": "CCOC(=O)C1=C(C)NC(=NC)SC1c1ccccc1", "note": "(configuration not stated)", "percent activity (GTP binding)": "inconclusive: 96%"}
{"smiles": "CCN(CC)S(=O)(=O)c1ccc(OC)c(NC(=O)c2ccc3c(c2)OCO3)c1", "percent activity (GTP binding)": "inconclusive: 89%"}
{"smiles": "COc1ccc(-c2noc(CCC(=O)NCCCN3CCC(C)CC3)n2)cc1", "percent activity (GTP binding)": "inconclusive: 100%"}
{"smiles": "OCC1(CCOc2ccccc2)CCN(C2Cc3ccccc3C2)CC1", "percent activity (GTP binding)": "inactive: 94%"}
{"smiles": "CCc1nnc(NC(=O)CSc2nnc(-c3ccoc3C)n2-c2ccc(C)cc2)s1", "percent activity (GTP binding)": "inconclusive: 91%"}
{"smiles": "Cn1c(=O)n(Cc2ccc(F)cc2)c(=O)c2c1nc1n2CCN1Cc1ccco1", "percent activity (GTP binding)": "inactive: 80%"}
{"smiles": "Cc1c(/C=N/NC(=O)CNc2ccccc2)c2ccccn2c1C(=O)c1ccncc1", "percent activity (GTP binding)": "inconclusive: 97%"}
{"smiles": "COc1ccc(NC(=O)COC(=O)CNC(=O)C2CCCCC2)cc1", "percent activity (GTP binding)": "inconclusive: 94%"}
{"smiles": "Cc1c(C(=O)NCCN2CCOCC2)oc2ccc(S(=O)(=O)N3CCCCCC3)cc12", "percent activity (GTP binding)": "inconclusive: 108%"}
{"smiles": "COc1cc(NC(=O)c2ccc(Br)o2)c(C(=O)O)cc1OC", "percent activity (GTP binding)": "inconclusive: 92%"}
{"smiles": "COC(=O)C(C)N=Cc1ccccc1", "note": "(configuration not stated)", "percent activity (GTP binding)": "inactive: 97%"}
{"smiles": "OC(COc1c(Cl)cc(Cl)cc1Cl)CN1CCCCC1", "note": "(configuration not stated)", "percent activity (GTP binding)": "inconclusive: 105%"}
{"smiles": "CC12CS(=O)(=O)CC1SC(=S)N2Cc1ccccc1", "note": "(configuration not stated)", "percent activity (GTP binding)": "inactive: 97%"}
{"smiles": "Clc1cc(Cl)cc(C2=NCCC(c3ccccc3)O2)c1", "note": "(configuration not stated)", "percent activity (GTP binding)": "inactive: 96%"}
{"smiles": "COc1ccc(-c2csc(Nc3ccc(S(N)(=O)=O)cc3)n2)cc1OC", "percent activity (GTP binding)": "inconclusive: 94%"}
{"smiles": "CCNC(=O)c1cc2c(=O)n3cccc(C)c3nc2n(CCc2ccccc2)c1=N", "percent activity (GTP binding)": "active: 71%"}
{"smiles": "O=C1c2ccccc2C(=O)c2c1cccc2N1CCCC1", "percent activity (GTP binding)": "inconclusive: 95%"}
{"smiles": "CCOC(=O)N1CCN(C(=O)c2cccc(NC(=O)c3ccco3)c2)CC1", "percent activity (GTP binding)": "inconclusive: 97%"}
{"smiles": "C=CCOC(=O)CCCC(=O)NC1CCCCC1", "percent activity (GTP binding)": "inconclusive: 107%"}
{"smiles": "COC(=O)C(NS(=O)(=O)c1ccc(NC(C)=O)cc1)C(C)C", "note": "(configuration not stated)", "percent activity (GTP binding)": "inconclusive: 95%"}
{"smiles": "CCCCNC(=S)N(Cc1ccco1)Cc1cc2cc3c(cc2[nH]c1=O)OCCO3", "percent activity (GTP binding)": "inconclusive: 100%"}
{"smiles": "COc1ccc(CNC(=O)C2CCCN(c3nccc(C)n3)C2)cc1", "note": "(configuration not stated)", "percent activity (GTP binding)": "inactive: 103%"}
{"smiles": "S=C(c1ccc(-c2ccccc2)o1)N1CCCCC1", "percent activity (GTP binding)": "inconclusive: 85%"}
{"smiles": "Cn1c(=O)c2c(ncn2CC(=O)N/N=C/c2cn[nH]c2-c2ccc(F)cc2)n(C)c1=O", "percent activity (GTP binding)": "inconclusive: 94%"}
{"smiles": "CCCCCCCCCCS(=O)(=O)N/N=C/c1ccc(O)cc1", "percent activity (GTP binding)": "inconclusive: 87%"}
{"smiles": "Cc1ccc(C(=O)COc2nc(C)nc3ccccc23)cc1", "percent activity (GTP binding)": "inactive: 91%"}
{"smiles": "O=c1ccn(Cc2ccccc2Cl)cc1", "percent activity (GTP binding)": "inconclusive: 106%"}
{"smiles": "Cn1c(NNC(=O)C2CCCCC2)cc(=O)n(C)c1=O", "percent activity (GTP binding)": "inactive: 93%"}
{"smiles": "O=C(Cn1nc(-c2ccccc2)c2ccccc2c1=O)Nc1cccc(O)c1", "percent activity (GTP binding)": "inactive: 96%"}
{"smiles": "Cc1ccc(Nc2c(F)c(F)c(F)c(F)c2C(=O)O)cc1", "percent activity (GTP binding)": "active: 128% [activator]"}
{"smiles": "CSc1c(CC(=O)Nc2ccc(F)cc2)n(Cc2ccccc2)c2ccccc12", "percent activity (GTP binding)": "inactive: 101%"}
{"smiles": "CC(C)(C)c1ccccc1NC(=O)Cn1c(=O)cnc2ccccc21", "percent activity (GTP binding)": "inconclusive: 102%"}
{"smiles": "C=CCOc1ccc(CN(C)CC(=O)Nc2ccc3c(c2)CCC3)cc1", "percent activity (GTP binding)": "inconclusive: 91%"}
{"smiles": "COc1ccc(CNC(=O)/C(C#N)=C2\\N=C(NC(=O)c3cccs3)c3ccccc32)cc1", "percent activity (GTP binding)": "inactive: 100%"}
{"smiles": "Oc1c(Cl)cc(Cl)cc1C=Nc1ccccc1N1CCCC1", "percent activity (GTP binding)": "inconclusive: 93%"}
{"smiles": "CC(Oc1ccc(F)cc1)C(O)CCN(C)C", "note": "(configuration not stated)", "percent activity (GTP binding)": "inactive: 104%"}
{"smiles": "Cc1cc(Br)ccc1OCCn1ccnc1", "percent activity (GTP binding)": "inactive: 105%"}
{"smiles": "O=C(NCCc1ccc(Cl)cc1)/C(=C/c1cccnc1)NC(=O)c1ccccc1", "percent activity (GTP binding)": "inactive: 104%"}
{"smiles": "Cc1noc(NS(=O)(=O)c2ccc(NC(=O)CSc3n[nH]c(-c4ccccc4)n3)cc2)c1C", "percent activity (GTP binding)": "inconclusive: 92%"}
